Paper PMC11995724, “Antibiotic target discovery by integrated phenotypic and activity-based profiling of electrophilic fragments” (Cell chemical biology, 2025)
The whole screen tested about 3,200 compounds, of which about 110 (3.4%) showed an effect of 50% or more. The list shows a part of the results.

The molecules below were run on T1, V. cholerae SAD30. Settings: relative growth, OD600, LB; 25 µM; inhibitor.
T1 construct: SAD30
Set-up: species or system S. aureus MSSA476 (TSB) or V. cholerae SAD30 (LB); 384-well bacterial growth screen at 25 uM, OD600 relative to DMSO control

Row | SMILES | % of control remaining [%]
1 | C=CC(=O)N1CCC(NC(=O)c2oc(C)cc2C)CC1 [2-K17, 3,5-dimethyl-N-[1-(prop-2-enoyl)piperidin-4-yl]furan-2-carboxamide] | 82.0129
2 | O=C(CCl)NCc1cccc(NC(=O)C2CC2)c1 [4-D22, N-{3-[(2-chloroacetamido)methyl]phenyl}cyclopropanecarboxamide] | 119.905
3 | COc1cc(Cl)c(C)cc1N1C(=O)C=CC1=O [10-B15, 1-(4-chloro-2-methoxy-5-methylphenyl)-2,5-dihydro-1H-pyrrole-2,5-dione] | 23.534
4 | NC(=O)Cc1ccc(C(=O)CCl)s1 [10-A21, 2-[5-(2-chloroacetyl)thiophen-2-yl]acetamide] | 52.5229
5 | C=CC(=O)N1CCC(C(=O)N2CCCCC(SCC)C2)CC1 (centres unmarked) [2-P10, 1-{4-[3-(ethylsulfanyl)azepane-1-carbonyl]piperidin-1-yl}prop-2-en-1-one] | 100.695
6 | N#CC(=Cc1c2ccccc2cc2ccccc12)C(=O)NC1CCCCC1 [8-D14, 3-(anthracen-9-yl)-2-cyano-N-cyclohexylprop-2-enamide] | 51.3256
7 | O=C1CCc2cc(C(=O)CCl)ccc2N1 [10-M03, 6-(2-chloroacetyl)-1,2,3,4-tetrahydroquinolin-2-one] | 23.534
8 | CC(C)NC(=O)C(C#N)=Cc1cccc2ccccc12 [8-P06, 2-cyano-3-(naphthalen-1-yl)-N-(propan-2-yl)prop-2-enamide] | 75.119
9 | C=CC(=O)NC1(c2ncon2)CCOCC1 [3-K22, N-[4-(1,2,4-oxadiazol-3-yl)oxan-4-yl]prop-2-enamide] | 110.263
10 | CC(=O)NCc1ccc(C(=O)C(C)Cl)s1 (centres unmarked) [10-M04, N-{[5-(2-chloropropanoyl)thiophen-2-yl]methyl}acetamide] | 95.6945
11 | CC(Cl)C(=O)NC1CCN(S(=O)(=O)c2cnn(C)c2)CC1 (centres unmarked) [7-O05, 2-chloro-N-{1-[(1-methyl-1H-pyrazol-4-yl)sulfonyl]piperidin-4-yl}propanamide] | 83.9253
12 | COc1cc(C=C(C#N)C(=O)Nc2nccs2)cc(OC)c1O [8-M19, 2-cyano-3-(4-hydroxy-3,5-dimethoxyphenyl)-N-(1,3-thiazol-2-yl)prop-2-enamide] | 75.3909
13 | C=CC(=O)NCc1ccnc(-n2cncn2)c1 [3-B18, N-{[2-(1H-1,2,4-triazol-1-yl)pyridin-4-yl]methyl}prop-2-enamide] | 109.028
14 | C=CC(=O)N[C@H](C)c1cnnn1C [3-B11, N-[(1R)-1-(1-methyl-1H-1,2,3-triazol-5-yl)ethyl]prop-2-enamide] | 105.852
15 | O=C(CCl)Nc1cccc(S(=O)(=O)N=C2CCCCCN2)c1 [4-D08, N-{3-[(azepan-2-ylidene)sulfamoyl]phenyl}-2-chloroacetamide] | 107.656
16 | CC(Cl)C(=O)N1CCC(c2nccn2C)C1 (centres unmarked) [6-F15, 2-chloro-1-[3-(1-methyl-1H-imidazol-2-yl)pyrrolidin-1-yl]propan-1-one] | 81.1451
17 | CNC(=O)C(C#N)=Cc1ccc(F)cc1 [9-B14, 2-cyano-3-(4-fluorophenyl)-N-methylprop-2-enamide] | 82.7328
18 | CC(Cl)C(=O)N(C)C1CCN(C(=O)c2ccccc2)CC1 (centres unmarked) [6-B18, N-(1-benzoylpiperidin-4-yl)-2-chloro-N-methylpropanamide] | 87.5154
19 | N#Cc1ccc(OC2CN(C(=O)CCl)C2)cc1 [5-K07, 4-{[1-(2-chloroacetyl)azetidin-3-yl]oxy}benzonitrile] | 141.893
20 | Cc1cc(NC(=O)CN(C)C(=O)C(C)Cl)no1 (centres unmarked) [7-M19, 2-chloro-N-methyl-N-{[(5-methyl-1,2-oxazol-3-yl)carbamoyl]methyl}propanamide] | 81.8107
21 | Cn1c(-c2ccccc2)c(C(=O)CCl)c2ccccc21 [10-N04, 2-chloro-1-(1-methyl-2-phenyl-1H-indol-3-yl)ethan-1-one] | 95.0711
22 | CC(=O)Nc1ccc(C=C(C#N)C(=O)Nc2c(C)cc(C)cc2C)cc1 [8-M13, 2-cyano-3-(4-acetamidophenyl)-N-(2,4,6-trimethylphenyl)prop-2-enamide] | 75.2549
23 | CC(Cl)C(=O)Nc1cccc(CSc2ccccn2)c1 (centres unmarked) [5-B18, 2-chloro-N-{3-[(pyridin-2-ylsulfanyl)methyl]phenyl}propanamide] | 74.141
24 | N#CC(=Cc1c2ccccc2c(Cl)c2ccccc12)C(N)=O [8-N12, 3-(10-chloroanthracen-9-yl)-2-cyanoprop-2-enamide] | 53.637

Row | SMILES | % of control remaining [%]
25 | CC(c1cnn(C)c1)N(C)C(=O)CCl (centres unmarked) [5-M04, 2-chloro-N-methyl-N-[1-(1-methyl-1H-pyrazol-4-yl)ethyl]acetamide] | 106.252
26 | N#CC(=CN1CCN(c2ccccc2)CC1)C(=O)Nc1ccc(F)cc1 [8-C20, 2-cyano-N-(4-fluorophenyl)-3-(4-phenylpiperazin-1-yl)prop-2-enamide] | 75.3909
27 | C=CC(=O)N(C)C1CCN(c2cnccn2)CC1 [1-B12, N-methyl-N-[1-(pyrazin-2-yl)piperidin-4-yl]prop-2-enamide] | 122.424
28 | Cc1ccccc1NC(=O)C(C#N)=Cc1cccc2ccccc12 [8-H09, 2-cyano-N-(2-methylphenyl)-3-(naphthalen-1-yl)prop-2-enamide] | 74.1672
29 | O=C(CCl)Nc1ccc(Cl)cc1[N+](=O)[O-] [5-N08, 2-chloro-N-(4-chloro-2-nitrophenyl)acetamide] | 89.9443
30 | O=C(CCl)N(Cc1ccc(F)cc1)C1CCCCC1 [4-I13, 2-chloro-N-cyclohexyl-N-[(4-fluorophenyl)methyl]acetamide] | 92.3011
31 | C=CC(=O)NCC(OC)C1CCOC1 (centres unmarked) [3-L19, N-[2-methoxy-2-(oxolan-3-yl)ethyl]prop-2-enamide] | 92.619
32 | CC(=O)NCc1ccc(C(=O)CCl)o1 [10-I10, N-{[5-(2-chloroacetyl)furan-2-yl]methyl}acetamide] | 118.761
33 | O=C(CCl)c1cnc(N2CCCCC2)s1 [10-L17, 2-chloro-1-[2-(piperidin-1-yl)-1,3-thiazol-5-yl]ethan-1-one] | 110.189
34 | Cc1nnnn1-c1ccc(F)c(NC(=O)CCl)c1 [6-E13, 2-chloro-N-[2-fluoro-5-(5-methyl-1H-1,2,3,4-tetrazol-1-yl)phenyl]acetamide] | 89.1838
35 | Cc1ccc(C2CS(=O)(=O)CCN2C(=O)C(C)Cl)o1 (centres unmarked) [6-D19, 4-(2-chloropropanoyl)-3-(5-methylfuran-2-yl)-1lambda6-thiomorpholine-1,1-dione] | 84.6336
36 | C=CC(=O)NC(CO)c1nc(C)no1 (centres unmarked) [1-C05, N-[2-hydroxy-1-(3-methyl-1,2,4-oxadiazol-5-yl)ethyl]prop-2-enamide] | 80.2691
37 | CC1(C)C(=O)Nc2ccc(C(=O)CCl)cc21 [10-N21, 5-(2-chloroacetyl)-3,3-dimethyl-2,3-dihydro-1H-indol-2-one] | 35.0672
38 | C=CC(=O)N1CCCC(C2CCN(C(=O)c3cc(C)nn3C)CC2)C1 (centres unmarked) [1-P22, 1-[1'-(1,3-dimethyl-1H-pyrazole-5-carbonyl)-[3,4'-bipiperidin]-1-yl]prop-2-en-1-one] | 110.893
39 | C=CC(=O)NC1CCOCC1 [2-G17, N-(oxan-4-yl)prop-2-enamide] | 90.3503
40 | CC(Cl)C(=O)Nc1cc(F)ccc1F (centres unmarked) [6-A09, 2-chloro-N-(2,5-difluorophenyl)propanamide] | 93.734
41 | COC1CCC(N(Cc2cc(C)oc2C)C(=O)CCl)CC1 (centres unmarked) [5-O20, 2-chloro-N-[(2,5-dimethylfuran-3-yl)methyl]-N-(4-methoxycyclohexyl)acetamide] | 94.8198
42 | CCc1ccc(NC(=O)C(C#N)=Cc2cccnc2)cc1 [8-G04, 2-cyano-N-(4-ethylphenyl)-3-(pyridin-3-yl)prop-2-enamide] | 83.8205
43 | C=CC(=O)N(C)Cc1ccncc1 [1-N21, N-methyl-N-[(pyridin-4-yl)methyl]prop-2-enamide] | 89.5366
44 | C=CC(=O)N(C)CC(=O)N1CCCC1c1nc(C)no1 (centres unmarked) [2-M04, N-methyl-N-{2-[2-(3-methyl-1,2,4-oxadiazol-5-yl)pyrrolidin-1-yl]-2-oxoethyl}prop-2-enamide] | 95.1365
45 | O=C(CCl)Cc1c(F)cccc1Cl [10-D20, 1-chloro-3-(2-chloro-6-fluorophenyl)propan-2-one] | 36.1582
46 | Cc1noc(C2CN(C(=O)C(C)Cl)C2)n1 (centres unmarked) [7-G04, 2-chloro-1-[3-(3-methyl-1,2,4-oxadiazol-5-yl)azetidin-1-yl]propan-1-one] | 93.3091
47 | C[C@H]1CN(C(=O)CCl)Cc2cccn21 [5-B03, 2-chloro-1-[(4S)-4-methyl-1H,2H,3H,4H-pyrrolo[1,2-a]pyrazin-2-yl]ethan-1-one] | 107.429
